According to PubChem BioAssay AID1508623 (National Center for Advancing Translational Sciences (NCATS), 2021):
The whole screen tested about 48,000 compounds, of which about 450 (0.94%) were called active. Another 19% or so got no clear call; they are omitted. The call rests on the fitted dose curve; in most records, active means well fitted inhibition curve with a large enough effect; inconclusive means small, poorly fitted or top-dose-only effect; inactive means no such curve, though single readings can be large or run the other way. This is one part of the list.

experiment: Primary qHTS for Identification of Small Molecule Inhibitors of Huntingtin Promoter Activity; settings: HEK293 HTT promoter firefly luciferase reporter (activity 0% = vehicle and -100% = no light), 24 h; series mostly up to 57.5 µM; activity change, negative = inhibition: at the top concentration; further: nearly all actives have a fitted effect of over 50% in size
Excerpt: Assay Provider: Russell L. Margolis M.D.
Department Neurology, Johns Hopkins University School of Medicine, Baltimore, MD
Huntington's Disease (HD) is a neurodegenerative disorder caused by a CAG repeat expansion in exon 1 of huntingtin (HTT). While there are currently no disease-modifying treatments for HD, recent efforts have focused on development of nucleotide-based therapeutics to lower HTT expression. As an alternative to siRNA or oligonucleotide methods, we hypothesized that suppression of HTT expression might be accomplished by small molecules that either (1) directly decrease HTT expression by suppressing HTT promoter activity or (2) indirectly decrease HTT expression by increasing the promoter activity of HTT-AS, the gene antisense to HTT that appears to inhibit expression of HTT.
We developed and employed a high throughput screen for modifiers of HTT and HTT-AS promoter activity using luminescent reporter HEK293 cells; of the 52,041 compounds tested, we identified 898 replicable hits. We used a rigorous stepwise approach to assess compound toxicity and the capacity of the compounds to specifically lower huntingtin protein in 5 different cell lines, including HEK293 cells, HD lymphoblastoid cells, mouse primary neurons, HD iPSCs differentiated into cortical-like neurons, and HD hESCs. We found no compounds which were able to lower huntingtin without lowering cell viability in all assays, though the potential efficacy of a few compounds at non-toxic doses could not be excluded.
SEQUENCE No. (1, 2, 3, etc.); […] (e.g., Cells, Incubation, Reagent, etc.); VALUE and DESCRIPTION.
1; Reagent; 4 uL; 2,500 Hek293 luciferase reporter cells per wells
3; Compound; 23 nL; Control inhibitor / compound library
5; Reagent; 2.5 uL; Firefly Luc reagent; Dual-Glo Luciferase Reporter Assay System (Promega)
6; Time; 10 min; room temperature incubation
7; Detection; Luminescence; FLuc
NOTES (numbers refer to sequence above)
1; High-throughput screening, measuring luminescence from a Hek293 luciferase reporter, was performed in 1,536 well white-walled tissue-culture treated plates. 2,500 cells were plated in 4 µL of Opti-MEM per well using a Multidrop Combi Reagent Dispenser (ThermoFisher).
2; Assay plates were cultured for 24 hours.
3; Control inhibitor (PTC124; final concentration of 50 uM) and compound library (at final concentrations of 460 nM - 57.5 uM) were added to the assay plate using the Kalypsis Pintool Robotic System equipped with 1536 pinheads.
4; Cells were then incubated for 24 hours at 37 degrees C prior to luminescence measurements.
5; In all cases, luminescence was measured using the Dual-Glo Luciferase Reporter Assay System (Promega) following the manufacturer's instructions.
6; Room temperature incubation.
7; Luminescence signal was obtained using the PerkinElmer ViewLux plate reader. Results were normalized to vehicle control (0% activity) and zero RLU (-100% activity).

SMILES | activity change, negative = inhibition
Cc1cccc(Cc2c(C)nc3nc(SCC(=O)NC4CCCCC4)nn3c2C)c1 | inactive: -13.1%
CCOC(=O)c1nnc2c(-c3ccc(F)cc3)c(C)nn2c1N | inactive: -4.02%
COc1ccccc1CNC(=O)c1cnn(-c2ccc(F)cc2F)c1C1CCN(C(=O)OC(C)(C)C)CC1 | inactive: -12.3%
Cc1ccc(N2CC(NC(=O)Cc3ccc(F)cc3)CC2=O)cc1C (stereo not given) | inactive: -24.3%
COCCN1CN=C(NS(=O)(=O)c2ccc(C)cc2)NC1 | inactive: -25.3%
COc1ccc(-c2noc(CCC(=O)Nc3ccccc3Cl)n2)cc1OC | inactive: -21.4%
CC1CCN(S(=O)(=O)c2ccc3nc(N4CCN(c5ccccc5F)CC4)ccc3c2)CC1 | inactive: -4.16%
COc1ccc(/C=C(\C#N)c2nc(-c3cc4ccccc4oc3=O)cs2)cc1OC | inactive: -5.17%
CCOc1cc(C2CC(=O)Nc3c2c(C)nn3-c2nc(C)cc(C)n2)ccc1O (stereo not given) | inactive: -9.46%
COC(=O)c1cccnc1-n1c(=O)c2cccnc2n(CC(=O)Nc2cccc(C(F)(F)F)c2)c1=O | inactive: -18.5%
COc1cc(C)ccc1OCCSc1nnc(-c2cccs2)o1 | inactive: -23% [at 11.5 µM]
FC(F)(F)c1cccc(N2CCN(Cc3nnc(-c4ccccc4)o3)CC2)c1 | inactive: -16.5%
O=C(/C=C/c1ccccc1)Nc1cc(-c2nc3ccccc3o2)ccc1Cl | inactive: -9.01%
CCOc1ccccc1CNC(=O)c1ccc(Cn2c(=O)c3cccn3c3cccnc32)cc1 | inactive: -5.33%
CCCN(CCC)CCCNC(=O)c1nn(C)c2c1CS(=O)(=O)c1ccccc1-2 | inactive: -14.6%
COC(=O)CC1Oc2ccccc2-n2cc(-c3ccc(Cl)cc3)nc21 (stereo not given) | inactive: -13.1%
Cc1ccccc1C(=O)Nc1nnc(S(=O)(=O)N2CCCCCC2)s1 | inactive: -6.14%
Cc1ccc(Cl)cc1N1CCN(C(=O)C2CCN(Cc3nc(-c4cccc(Cl)c4)oc3C)CC2)CC1 | inactive: -9.68%
COc1ccc(CNC(=O)Cc2csc3nc(-c4ccc(C)cc4)cn23)cc1 | inactive: 19.4%
O=C(NO)c1cnc(N2CCN(S(=O)(=O)c3ccc4ccccc4c3)CC2)nc1 | inactive: 112%

SMILES | activity change, negative = inhibition
CCc1nn2c(=O)cc(COC(=O)C(c3ccccc3)c3ccccc3)nc2s1 | inactive: -27.3%
CCOC(=O)c1ccc(Nc2cc(-c3ccccc3)nc(C)n2)cc1 | inactive: -15%
COc1ccc(-n2nc(C(=O)NCCc3cccc(C)c3)c3c4ccccc4n(C)c3c2=O)cc1Cl | inactive: -10.6%
Cc1cc(C)cc(N(CC(=O)NCc2ccccc2Cl)S(=O)(=O)c2c(C)noc2C)c1 | inactive: -17.5%
CCOC(=O)Cn1c(=O)n(-c2ccccc2OC)c2nc(-c3ccccc3C)nc(C(N)=O)c21 | inactive: -21%
O=C(COc1ccccc1)Nc1ccccc1C(=O)OCc1cc(=O)n2nc(C3CC3)sc2n1 | inactive: -13.3%
CCOCCc1nn2c(=O)cc(COC(=O)C(CC)c3ccccc3)nc2s1 (stereo not given) | inactive: -17.8%
Cc1cccc(C(=O)Nc2ccccc2SCc2cc(=O)c3cccc(C)c3[nH]2)c1 | inactive: -7.27%
COc1ccc(NC(=O)CCn2cccn2)cc1OC | inactive: -10.6%
CCOc1ccc(NC(=O)Cn2c(=O)n(CCC(=O)NCCc3ccccc3)c(=O)c3ccccc32)cc1 | inactive: -1.6%
Cc1ccc2occ(-c3cc(-c4ccc(Cl)cc4)nc4c3COc3ccccc3-4)c(=O)c2c1 | inactive: -19.2%
Cc1ccc(Cn2c(=O)n(Cc3ccccc3Cl)c(=O)c3ccccc32)cc1 | inactive: -10.8%
CCCCc1nn2c(=O)cc(COC(=O)c3ccc(NC(=O)C4CCCCC4)cc3)nc2s1 | inactive: 11.2%
COc1cccc(C2CC(=O)Nc3c2c(=O)nc2c(C)cccn32)c1OC (stereo not given) | inactive: -0.172%
COc1ccccc1CNC(=O)c1cnn2c(C)c(Cc3ccc(F)cc3)c(C)nc12 | inactive: -2.77%
Cc1ccc(C(c2sc3nc(-c4ccco4)nn3c2O)N2CCN(Cc3ccccc3)CC2)cc1 (stereo not given) | inactive: 0.851%
Cc1ccc(-c2nc3cc(Cl)ccc3o2)cc1NC(=O)COc1ccc(F)cc1 | inactive: 8.46%
CCOC(=O)c1ccc(NC(=O)CN2C(=O)COc3ccc(Cl)cc32)cc1 | inactive: -16.4%
CCOc1ccccc1NC(=O)Cn1nnc(C(=O)Nc2ccc(C)c(C)c2)c1N | inactive: -2.04%
Cc1c(C(=O)N2CCC(C)CC2)c(S(=O)(=O)N2CCN(c3ccc(Cl)cc3)CC2)c(C)n1C | inactive: -21.1%

SMILES | activity change, negative = inhibition
Cn1nccc1C(=O)NCc1ccc2c(c1)CCN2C(=O)c1ccccc1 | inactive: -8.28%
COc1ccc(-c2nc3sc(CCNC(=O)C(=O)Nc4c(C)cccc4C)c(C)n3n2)cc1 | inactive: -8.17%
CC1CCCN(CCCNC(=O)CN2C(=O)CSc3ccc(S(=O)(=O)N4CCOCC4)cc32)C1 (stereo not given) | inactive: -11.3%
Cc1ccc(Cl)cc1N1CCN(S(=O)(=O)c2cc3[nH]c(=O)c(=O)[nH]c3cc2C)CC1 | inactive: -8.72%
CCc1ccc(OCC(=O)N(Cc2ccc(OC)cc2)C2CCS(=O)(=O)C2)cc1 (stereo not given) | inactive: -8.36%
O=C(CCn1c(=O)c2cccn2c2cccnc21)N1CCN(c2cccc(Cl)c2)CC1 | inactive: -8.61%
COc1ccc(NC(=O)C2CCCN2S(=O)(=O)c2ccc3nc(-c4ccccc4)[nH]c3c2)cc1 (stereo not given) | inactive: -4.92%
CN1C(=O)Cc2cc(S(=O)(=O)NCCc3ccccc3)ccc21 | inactive: -0.991%
COCCCNC(=O)Cn1cnc2sc(C)c(S(=O)(=O)N3CCN(c4ccccc4OC)CC3)c2c1=O | inactive: -14.2%
CCOC(=O)c1cc(-c2ccc(C)cc2)n(CCC(=O)Nc2ccc(OC)c(OC)c2)c1C | inactive: -26.7%
CCN1CCN(C(=O)c2ccc3c(c2)N(Cc2cccc(F)c2)C(=O)c2ccccc2S3)CC1 | inactive: -15.1%
CCCCCN1C(C(=O)c2ccccc2)=C(NC(=O)c2ccccc2Cl)c2ccccc2S1(=O)=O | inactive: -8.35% [at 11.5 µM]
COc1ccc(CCNC(=O)c2ccc3c(c2)N(Cc2ccc(Cl)cc2)CCS3)c(OC)c1 | inactive: -26.8%
COC(=O)c1c(NC(=O)COc2cc(C)ccc2C(C)C)sc2c1CCC(C)C2 (stereo not given) | inactive: -7.46%
Cc1cc(C)c(S(=O)(=O)n2cnc(C)c2)c(C)c1 | inactive: 1.3%
CC(=O)NC(C)c1ccc(Oc2ccc(OC(C)C)cc2)cc1 (stereo not given) | inactive: 11.5%
CCC(C)NC(=O)C1CCC(CNS(=O)(=O)c2ccc(Cl)cc2)CC1 (stereo not given) | inactive: -17.6%
Cc1ccc(-c2ccc(=O)n(CC(=O)NCc3ccc(F)cc3)n2)cc1 | inactive: -12.1%
COc1ccc(-c2nc3n(n2)C(=O)CC(c2ccc(Cl)cc2)S3)cc1 (stereo not given) | inactive: -2.69%
Cc1ccc2nc3c(cc(C(=O)NC4CCCCC4)c(=N)n3C(C)C)c(=O)n2c1 | inactive: -4.52%
